Assay results from the supplement of paper PMC4723716.
± gives the uncertainty stated by the source. Over roughly 9,900 compounds, “viability index relative to DMSO control” has its median near 1; the lowest 2% begin near 0.85. The list shows a part of the results.

Test system: Plasmodium falciparum NF54 stage V gametocytes
Assay: viability index relative to DMSO control (fraction); higher = less gametocyte killing
Settings: 2.5 µM, incubation time: 72 h
Experimental: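 Broad DOS informer set and blood-stage-active DOS compounds screened in duplicate at 2.5 µM against P. falciparum NF54 stage V gametocytes with the serum-free one-step SaLSSA (1536-well): 72 h at 37 °C under low oxygen, then saponin lysis and MitoTracker Red CMXRos staining, with high-content imaging. Viability index = viable-object count divided by the plate mean of DMSO wells (0 = killed, about 1 = inactive).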

[1] = library set: Broad Institute DOS

| Structure (SMILES) | viability index [1] | viability index (library set: Broad Institute Blood Stage) |
| --- | --- | --- |
| COc1ccc2c3c([nH]c2c1)[C@H](CO)N(C[C@]31CN(C1)S(=O)(=O)c1ccc(C)cc1)C(=O)Nc1ccc(F)cc1 | 1.05 ± 0.054 | – |
| C[C@H]1CN([C@@H](C)CO)C(=O)c2cc(C#Cc3cccc(F)c3)cnc2O[C@@H]1CN(C)C(=O)C1CCCCC1 | – | 0.769 ± 0.073 |
| NCC[C@H]1CC[C@@H](NC(=O)Cc2ccncc2)[C@H](CO)O1 | 1.091 ± 0.0072 | – |
| O=S(=O)(c1ccccc1)N1[C@H](CO)[C@@H]2c3ccccc3NC[C@@H]21 | 1.01 ± 0.011 | – |
| C[C@@H]1CN([C@@H](C)CO)C(=O)c2cc(Br)cnc2O[C@H]1CN(C)C(=O)Nc1ccc2c(c1)OCO2 | 0.991 ± 0.028 | – |
| CN1[C@@H]2c3ccc(-c4ccncc4)c(=O)n3C[C@H]1[C@H](CO)[C@H]2C(=O)N1CCC(Cc2ccccc2)CC1 | 1 ± 0.031 | – |
| COC(=O)[C@@H]1[C@@H](CO)[C@@H]2Cn3c(ccc(C4=CCCC4)c3=O)[C@@H]2N1C(=O)Cc1cccnc1 | 1.06 ± 0.053 | – |
| CN(C)C(=O)c1cccc(-c2ccc([C@@H]3[C@@H]4CN(Cc5cocn5)C[C@H]3N4)cc2)c1 | 0.989 ± 0.029 | – |
| CO[C@H]1CC[C@@H]2CCOc3c(C#N)cccc3C(=O)N(C)C[C@@H](c3ccccc3)CC(=O)N(C)C[C@@H]1O2 | 1.036 ± 0.008 | – |
| CN1C(=O)c2cc(NC(=O)c3cnccn3)ccc2OC[C@H]2O[C@H](CC(=O)N[C@@H]3CCN(Cc4ccccc4)C3)CC[C@@H]21 | 1.02 ± 0.052 | – |
| COc1ccc2c3c([C@@H](CO)N(C[C@]33CCN(CC3)C(=O)Nc3cccc(F)c3)S(C)(=O)=O)n(C)c2c1 | 1.05 ± 0.031 | – |
| COCCNC[C@@H]1[C@H](c2ccccc2)[C@H](CO)N1c1nc(C)c(C)s1 | 1.02 ± 0.067 | – |
| COc1ccc(-c2ccc([C@H]3[C@H](CO)N4C(=O)CN(C(=O)Cc5ccccn5)C[C@@H]34)cc2)cc1 | 1.02 ± 0.012 | – |
| O=C(Nc1cc(F)ccc1F)N[C@H]1CC[C@H](CCn2cc(C3CCCCC3)nn2)O[C@@H]1CO | 1.07 ± 0.0077 | – |
| CN1C(=O)c2cc(NC(=O)c3cnccn3)ccc2OC[C@H]2O[C@H](CC(=O)NCC3CCCCC3)CC[C@H]21 | 1.1 ± 0.064 | – |
| O=C(NC1CCCCC1)N1CC2(C1)[C@@H](c1ccccc1)[C@@H](CO)N2CC1CCCC1 | 0.987 ± 0.041 | – |
| CN(C)CC(=O)N1[C@H](CO)[C@@H](c2ccccc2)C12CN(CCC(F)(F)F)C2 | 1.05 ± 0.058 | – |
| O=C(C[C@@H]1CC[C@@H]2NC[C@H](O)COC[C@H]2O1)NCCc1ccncc1 | 0.976 ± 0.038 | – |
| C/C=C/c1ccc([C@H]2[C@H]3CN(CCC(F)(F)F)CCCCN3[C@H]2CO)cc1 | 1.041 ± 0.0046 | – |
| COc1cccc(NC(=O)C[C@@H]2CC[C@H]3[C@@H](COc4ccc(NC(=O)C5CC5)cc4C(=O)N3C)O2)c1 | 1.09 ± 0.035 | – |
| CO[C@@H](CN(C)CC1CCOCC1)[C@H](C)CN(C(=O)Nc1ccc(F)cc1)[C@@H](C)CO | 0.988 ± 0.043 | – |
| O=C(c1ccncc1)N1C[C@@H]2[C@H](c3ccccc31)[C@@H](CO)N2Cc1ccccc1F | 1.08 ± 0.043 | – |
| O=C(C[C@H]1CC[C@H]2[C@@H](COC[C@H](O)CN2C(=O)c2ccncc2)O1)Nc1ccc(-c2ccccc2)cc1 | 1.1 ± 0.041 | – |

| Structure (SMILES) | viability index [1] | viability index (library set: Broad Institute Blood Stage) |
| --- | --- | --- |
| CNC[C@@H]1Oc2ncc(-c3cncnc3)cc2C(=O)N([C@H](C)CO)C[C@@H]1C | 0.952 ± 0.034 | – |
| CN(C)c1ccc2c(c1)[C@@H]1C[C@@H](CC(=O)N3CCOCC3)O[C@@H](CO)[C@@H]1O2 | 1.08 ± 0.054 | – |
| Cc1ccc(S(=O)(=O)N(C)C[C@H]2OCCCC[C@H](C)Oc3ccc(NC(=O)c4ccncc4)cc3C(=O)N([C@H](C)CO)C[C@H]2C)cc1 | 1.03 ± 0.022 | – |
| CO[C@H]1CN(C)C(=O)c2ccc(NC(=O)Nc3c(C)noc3C)cc2OC[C@@H](C)N(CCC(F)(F)F)C[C@@H]1C | 0.963 ± 0.045 | – |
| CNC[C@H]1OCc2cn(nn2)CCCC(=O)N([C@@H](C)CO)C[C@H]1C | 0.985 ± 0.051 | – |
| N#C[C@@H]1[C@H](c2ccccc2C2=CCCCC2)[C@H](CO)N1C(=O)c1ccccn1 | 0.958 ± 0.064 | – |
| CCS(=O)(=O)N1C[C@@]2(C1)CN([C@H](CO)c1[nH]c3cc(OC)ccc3c21)C(=O)Nc1c(C)noc1C | 0.971 ± 0.15 | – |
| CCN(C[C@@H]1[C@H](c2ccccc2)[C@@H](CO)N1C(=O)COC)S(C)(=O)=O | 0.995 ± 0.045 | – |
| O=S(=O)(c1ccccc1)N1[C@H](CO)[C@H]2c3ccccc3NC[C@H]21 | 1.05 ± 0.018 | – |
| C[C@@H]1CCCCO[C@@H](CN(C)C(=O)Nc2ccc3c(c2)OCO3)[C@@H](C)CN([C@H](C)CO)C(=O)c2cc(NS(=O)(=O)c3ccc(F)cc3)ccc2O1 | 1.13 ± 0.1 | – |
| Cc1ccccc1-c1ccc([C@@H]2[C@@H](CO)N3C(=O)CN(S(C)(=O)=O)C[C@@H]23)cc1 | 1.05 ± 0.11 | – |
| COC(=O)C[C@H]1C[C@H]2c3cc(NC(=O)C4CCOCC4)ccc3O[C@H]2[C@@H](CO)O1 | 0.956 ± 0.029 | – |
| CCNC(=O)C[C@@H]1CC[C@H]2[C@@H](COC[C@H](O)CN2C(=O)c2ccccn2)O1 | 1.14 ± 0.062 | – |
| CCCC#Cc1ccc([C@H]2[C@H]3CN(S(=O)(=O)c4ccccc4C)CC(=O)N3[C@H]2CO)cc1 | 1.07 ± 0.05 | – |
| COc1cccc(S(=O)(=O)Nc2ccc3c(c2)C(=O)N(C)[C@H]2CC[C@@H](CC(=O)NCC4CCCCC4)O[C@@H]2CO3)c1 | 0.958 ± 0.0087 | – |
| CN1c2ccc(Br)cc2[C@@H]2[C@@H](CCN2C(=O)C2CCC2)[C@H]1CO | 1.04 ± 0.015 | – |
| C[C@@H]1CN([C@H](C)CO)C(=O)c2cccc(NC(=O)Nc3ccc(F)cc3)c2O[C@@H]1CN(C)S(=O)(=O)c1ccc(Cl)cc1 | 0.855 ± 0.061 | – |
| O=C(C[C@H]1CC[C@@H]2NC[C@@H](O)COC[C@H]2O1)N1CCc2ccccc2C1 | 1.02 ± 0.043 | – |
| Cc1ccc(S(=O)(=O)NCC[C@@H]2CC[C@H](NC(=O)c3cccnc3)[C@@H](CO)O2)cc1 | 1.14 ± 0.069 | – |
| CO[C@H]1CN(C)C(=O)c2cc(NS(=O)(=O)c3cn(C)cn3)ccc2OC[C@@H](C)NC[C@H]1C | 1 ± 0.012 | – |
| C[C@H](CO)N1C[C@H](C)[C@H](CN(C)Cc2ccc(Oc3ccccc3)cc2)Oc2c(NS(=O)(=O)c3cn(C)cn3)cccc2C1=O | 0.958 ± 0.045 | – |
| C[C@H](CO)N1C[C@H](C)[C@@H](CN(C)C(=O)CCC(F)(F)F)OCc2ccccc2-c2ccccc2C1=O | 0.955 ± 0.031 | – |
| CCC(=O)N1CC(=O)N2[C@H](C1)[C@@H](c1ccc(-c3ccc(C#N)cc3)cc1)[C@@H]2CO | 1.05 ± 0.13 | – |

| Structure (SMILES) | viability index [1] | viability index (library set: Broad Institute Blood Stage) |
| --- | --- | --- |
| OC[C@@H]1[C@H](c2ccc(-c3cccnc3)cc2)[C@H]2CN(Cc3ccccn3)CCCCN12 | 0.979 ± 0.024 | – |
| C[C@H]1CN([C@@H](C)CO)C(=O)c2cccc(NC(=O)c3ccc(-c4nccs4)cc3)c2O[C@H]1CN(C)C(=O)Nc1ccc(C(F)(F)F)cc1 | 0.997 ± 0.16 | – |
| CCCNC(=O)c1cc2c(c(-c3cccc(-c4ccc(F)cc4)c3)n1)[C@@H](CCO)N([S@](=O)C(C)(C)C)C2 | 1.061 ± 0.0038 | – |
| C[C@@H]1CN([C@H](C)CO)C(=O)c2ccccc2-c2ccccc2CO[C@H]1CN(C)C(=O)c1cc(Cl)cc(Cl)c1 | 1.03 ± 0.14 | – |
| COc1ccc(S(=O)(=O)Nc2ccc3c(c2)[C@@H]2C[C@H](CC(=O)N(C)C)O[C@H](CO)[C@@H]2O3)cc1 | 1.06 ± 0.11 | – |
| CNC(=O)C[C@@H]1CC[C@@H]2[C@@H](COc3ccc(NC(=O)c4ccccc4F)cc3C(=O)N2C)O1 | 1.13 ± 0.083 | – |
| O=C(C1CCCCC1)N1CC2(C1)[C@H](c1ccccc1)[C@@H](CO)N2C(=O)c1cccnc1 | 1.17 ± 0.041 | – |
| CCc1cnc(N2[C@H](C#N)[C@H](c3ccc(-c4cccc(F)c4)cc3)[C@@H]2CO)s1 | 1.07 ± 0.027 | – |
| CCS(=O)(=O)Nc1ccc2c(c1)C(=O)N(C)[C@@H]1CC[C@H](CC(=O)NCCCN3CCOCC3)O[C@@H]1CO2 | 1.08 ± 0.18 | – |
| O=C(c1ccc2c(c1)OCO2)N1C[C@@H]2[C@H](c3ccccc31)[C@H](CO)N2Cc1cccnc1 | 0.951 ± 0.031 | – |
| C[C@@H]1CN([C@@H](C)CO)C(=O)c2cc(NC(=O)Nc3cccc4ccccc34)ccc2O[C@@H](C)CCCCO[C@@H]1CN(C)Cc1ccc(C(F)(F)F)cc1 | 1.02 ± 0.03 | – |
| OC[C@H]1[C@@H](c2ccc(C#CC3(O)CCCC3)cc2)[C@@H]2CN(Cc3cncnc3)CCCCN12 | 1.02 ± 0.099 | – |
| C[C@H]1CN([C@@H](C)CO)C(=O)c2cc(NC(=O)Cn3cnnn3)ccc2O[C@H]1CN(C)Cc1ccc(C(=O)Nc2ccccc2N)cc1 | 1.05 ± 0.12 | – |
| CC(C)[C@H]1C(=O)N[C@H](c2cccc(Cl)c2)C/C=C/C[C@@H](C)Oc2ccccc2C(=O)N1C.CC(C)[C@H]1C(=O)N[C@H](c2cccc(Cl)c2)C/C=C\C[C@@H](C)Oc2ccccc2C(=O)N1C | 0.909 ± 0.08 | – |
| C[C@@H]1CN([C@H](C)CO)C(=O)c2c(c3ccccc3n2C)-c2ccccc2CO[C@H]1CN(C)Cc1cccc(C(F)(F)F)c1 | 0.914 ± 0.14 | – |
| C[C@H](CO)N1C[C@H](C)[C@@H](CN(C)C(=O)CN2CCOCC2)Oc2ncc(-c3ccncc3)cc2C1=O | 1.02 ± 0.021 | – |
| COc1cccc(NC(=O)Nc2ccc3c(c2)C(=O)N(C)C[C@H](OC)[C@H](C)CN[C@@H](C)CO3)c1 | 1 ± 0.026 | – |
| CS(=O)(=O)N1[C@H](C#N)[C@@H](c2ccc(-c3ccccc3F)cc2)[C@H]1CO | 1.08 ± 0.072 | – |
| O=C(C[C@@H]1CC[C@@H](NC(=O)C2CC2)[C@@H](CO)O1)Nc1ccccc1 | 0.97 ± 0.1 | – |
| COc1ccc([C@H]2C/C=C/C[C@H](C)Oc3ccccc3C(=O)N(C)[C@H](C(C)C)C(=O)N2)c(OC)c1.COc1ccc([C@H]2C/C=C\C[C@H](C)Oc3ccccc3C(=O)N(C)[C@H](C(C)C)C(=O)N2)c(OC)c1 | 1 ± 0.043 | – |
| CO[C@@H]1CN(C)C(=O)c2cc(NC(=O)NC(C)C)ccc2OC[C@H](C)N(Cc2ccccc2)C[C@@H]1C | 1.04 ± 0.052 | – |
| O=C(c1cnccn1)N1C[C@@H]2N[C@H](C1)[C@@H]2c1ccc(/C=C/c2ccccc2)cc1 | 1.05 ± 0.026 | – |
| Cc1noc(C)c1NC(=O)N1C[C@H](O)COC[C@@H]2O[C@@H](CC(=O)NCC3CC3)CC[C@H]21 | 1.03 ± 0.029 | – |
